By IC50 is meant the dose at which the fit gives 50% viability; a limit (>, <) means that the fit lies beyond the doses tested. The AUC spans the tested range (256-fold, ending at the top dose) of the same fit: 1 means no effect, lower means more sensitive. For part of these data: Any top dose called inferred was derived from the fitted curves, not read from the paper. For part of these data: Where an entry number is given, a second screen of the drug exists; the two often differ.
How the values were obtained:
Assay in all cases: Viability of human cancer cell lines after 72 h of drug (GDSC screen)
XMD13-2 = compound: O=C(NC1CC1)c1cccc(-c2ccc3c(NC(=O)C4CC4)n[nH]c3c2)c1 [XMD13-2]; conditions: top dose 10.24 µM; top dose inferred
Procedure: (§1)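 Human cancer cell lines in 384-well plates, medium with 10% serum, drug for 72 h over a 256-fold dose range (nine 2-fold or five 4-fold steps up to the top dose). Adherent lines were fixed and stained with the nucleic acid dye Syto60, suspension lines read with resazurin; signal relative to control wells, capped at 0 and 100%. One two-parameter sigmoid per drug and line, fitted in a mixed model over all curves with the slope shared within a line.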

Vinblastine = compound: CC[C@]1(O)C[C@@H]2CN(CCc3c([nH]c4ccccc34)[C@@](C(=O)OC)(c3cc4c(cc3OC)N(C)[C@H]3[C@@](O)(C(=O)OC)[C@H](OC(C)=O)[C@]5(CC)C=CCN6CC[C@]43[C@@H]65)C2)C1 [Vinblastine]; conditions: top dose 0.1 µM; top dose inferred
Procedure: as §1

SNX-2112 = compound: CC1(C)CC(=O)c2c(C(F)(F)F)nn(-c3ccc(C(N)=O)c(N[C@H]4CC[C@H](O)CC4)c3)c2C1 [SNX-2112]; conditions: top dose 2.56 µM
Procedure: as §1

Afatinib = compound: CN(C)C/C=C/C(=O)Nc1cc2c(Nc3ccc(F)c(Cl)c3)ncnc2cc1O[C@H]1CCOC1 [Afatinib]
Procedure: as §1

PF-562271 = compound: CN(c1ncccc1CNc1nc(Nc2ccc3c(c2)CC(=O)N3)ncc1C(F)(F)F)S(C)(=O)=O [PF-562271]; conditions: top dose 2.56 µM; top dose inferred
Procedure: as §1

[1] = top dose 0.5 µM, screen: GDSC drug entry 1032
[2] = top dose 10 µM, screen: GDSC drug entry 1377, top dose inferred

Row | Cell Line | AUC (XMD13-2) | IC50 (XMD13-2) [nM] | AUC (Vinblastine) | IC50 (Vinblastine) [nM] | AUC (SNX-2112) | IC50 (SNX-2112) [nM] | AUC (Afatinib; [1]) | IC50 (Afatinib; [1]) [nM] | AUC (Afatinib; [2]) | IC50 (Afatinib; [2]) [nM] | AUC (PF-562271) | IC50 (PF-562271) [nM]
1 | PCI-15A (head and neck, adherent) | 0.944 | > 10200 | 0.93 | > 100 | 0.975 | > 2560 | 0.913 | > 500 | 0.877 | > 10000 | 0.948 | > 2560
2 | PCI-30 (head and neck, adherent) | 0.969 | > 10200 | 0.621 | 14.5 | 0.844 | 2490 | 0.973 | > 500 | 0.959 | > 10000 | 0.983 | > 2560
3 | PE/CA-PJ15 (head and neck, adherent) | 0.973 | > 10200 | 0.591 | 11.3 | 0.824 | 1690 | 0.95 | > 500 | 0.756 | 3670 | 0.974 | > 2560
4 | PF-382 (T-cell lymphoblastic leukaemia, suspension) | 0.877 | 8050 | 0.752 | 29.5 | 0.253 | 35 | 0.99 | > 500 | 0.99 | > 10000 | 0.915 | > 2560
5 | PFSK-1 (medulloblastoma, adherent) | 0.854 | 8900 | 0.461 | 4.85 | 0.419 | 94.6 | 0.983 | > 500 | 0.973 | > 10000 | 0.958 | > 2560
6 | PL4 (pancreas, adherent) | 0.979 | > 10200 | 0.878 | > 100 | 0.839 | 1830 | 0.973 | > 500 | 0.928 | > 10000 | 0.967 | > 2560
7 | PL-21 (acute myeloid leukaemia, suspension) | 0.745 | 3690 | 0.56 | 9.35 | 0.386 | 73.5 | 0.979 | > 500 | 0.965 | > 10000 | 0.877 | > 2560
8 | PSN1 (pancreas, adherent) | 0.889 | 8430 | 0.281 | 1.69 | 0.185 | 22.6 | 0.991 | > 500 | 0.985 | > 10000 | 0.97 | > 2560
9 | QIMR-WIL (acute myeloid leukaemia, suspension) | 0.677 | 1960 | 0.396 | 3.27 | 0.203 | 21.9 | 0.987 | > 500 | 0.985 | > 10000 | 0.922 | > 2560
10 | RC-K8 (B-cell lymphoma, suspension) | 0.993 | > 10200 | 0.933 | > 100 | 0.605 | 297 | 0.993 | > 500 | 0.973 | > 10000 | 0.985 | > 2560
11 | RCC10RGB (kidney, adherent) | 0.967 | > 10200 | 0.919 | > 100 | 0.905 | > 2560 | 0.927 | > 500 | 0.782 | 9960 | 0.791 | > 2560
12 | RCM-1 (large intestine, adherent) | 0.983 | > 10200 | 0.951 | > 100 | 0.852 | > 2560 | 0.902 | > 500 | 0.913 | > 10000 | 0.943 | > 2560
13 | REH (B-cell leukaemia, suspension) | 0.8 | 4740 | 0.459 | 4.86 | 0.215 | 24.3 | 0.986 | > 500 | 0.931 | > 10000 | 0.874 | 2320
14 | RERF-LC-KJ (lung adenocarcinoma, adherent) | 0.972 | > 10200 | 0.535 | 7.83 | 0.914 | > 2560 | 0.927 | > 500 | 0.974 | > 10000 | 0.973 | > 2560
15 | RERF-LC-MS (lung adenocarcinoma, adherent) | 0.983 | > 10200 | 0.658 | 17.4 | 0.609 | 322 | 0.975 | > 500 | 0.985 | > 10000 | 0.927 | > 2560
16 | RERF-LC-Sq1 (lung squamous cell carcinoma, adherent) | 0.948 | > 10200 | 0.778 | 61.6 | 0.866 | > 2560 | 0.697 | 146 | 0.601 | 1340 | 0.979 | > 2560
17 | RF-48 (stomach, adherent) | 0.87 | > 10200 | 0.756 | 37.9 | 0.307 | 42.7 | 0.981 | > 500 | 0.983 | > 10000 | 0.926 | > 2560
18 | RH-1 (rhabdomyosarcoma, adherent) | 0.882 | 7800 | 0.436 | 4.32 | 0.252 | 36.1 | 0.991 | > 500 | 0.971 | > 10000 | 0.934 | > 2560

Row | Cell Line | AUC (XMD13-2) | IC50 (XMD13-2) [nM] | AUC (Vinblastine) | IC50 (Vinblastine) [nM] | AUC (SNX-2112) | IC50 (SNX-2112) [nM] | AUC (Afatinib; [1]) | IC50 (Afatinib; [1]) [nM] | AUC (Afatinib; [2]) | IC50 (Afatinib; [2]) [nM] | AUC (PF-562271) | IC50 (PF-562271) [nM]
19 | RH-41 (rhabdomyosarcoma, adherent) | 0.923 | > 10200 | 0.427 | 4.09 | 0.855 | 1530 | 0.972 | > 500 | 0.976 | > 10000 | 0.979 | > 2560
20 | RKN (ovary, adherent) | 0.917 | > 10200 | 0.496 | 6.08 | 0.697 | 594 | 0.975 | > 500 | 0.972 | > 10000 | 0.96 | > 2560
21 | RKO (large intestine, adherent) | 0.857 | 7350 | 0.495 | 6.06 | 0.258 | 34.5 | 0.977 | > 500 | 0.986 | > 10000 | 0.891 | > 2560
22 | RL95-2 (endometrium, adherent) | 0.978 | > 10200 | 0.603 | 11.9 | 0.595 | 291 | 0.803 | 244 | 0.892 | > 10000 | 0.9 | > 2560
23 | RL (B-cell lymphoma, suspension) | 0.905 | > 10200 | 0.371 | 2.85 | 0.311 | 49.9 | 0.99 | > 500 | 0.952 | > 10000 | 0.99 | > 2560
24 | RMG-I (ovary, adherent) | 0.96 | > 10200 | 0.859 | > 100 | 0.842 | 2260 | 0.94 | > 500 | 0.336 | 201 | 0.957 | > 2560
25 | RO82-W-1 (thyroid, adherent) | 0.974 | > 10200 | 0.469 | 5.03 | 0.928 | > 2560 | 0.981 | > 500 | 0.954 | > 10000 | 0.922 | > 2560
26 | ROS-50 (B-cell leukaemia, suspension) | 0.926 | > 10200 | 0.962 | > 100 | 0.851 | > 2560 | 0.984 | > 500 | 0.982 | > 10000 | 0.983 | > 2560
27 | RPMI-2650 (head and neck, adherent) | 0.956 | > 10200 | 0.709 | 25.6 | 0.508 | 168 | 0.962 | > 500 | 0.962 | > 10000 | 0.889 | > 2560
28 | RPMI-6666 (Hodgkin lymphoma, suspension) | 0.77 | 4670 | 0.655 | 18.4 | 0.225 | 20.8 | 0.976 | > 500 | 0.972 | > 10000 | 0.92 | > 2560
29 | RPMI-7951 (melanoma, adherent) | 0.969 | > 10200 | 0.384 | 3.03 | 0.244 | 30 | 0.967 | > 500 | 0.984 | > 10000 | 0.895 | > 2560
30 | RPMI-8226 (myeloma, suspension) | 0.918 | > 10200 | 0.309 | 1.98 | 0.38 | 78.7 | 0.962 | > 500 | 0.981 | > 10000 | 0.979 | > 2560
31 | RPMI-8402 (T-cell lymphoblastic leukaemia, suspension) | 0.736 | 2630 | 0.522 | 7.1 | 0.28 | 43 | 0.99 | > 500 | 0.95 | > 10000 | 0.909 | > 2560
32 | RPMI-8866 (chronic myeloid leukaemia, suspension) | 0.896 | > 10200 | 0.122 | 0.438 | 0.166 | 17 | 0.981 | > 500 | 0.929 | > 10000 | 0.987 | > 2560
33 | RT4 (bladder, adherent) | 0.938 | > 10200 | 0.82 | 61.4 | 0.44 | 109 | 0.987 | > 500 | 0.986 | > 10000 | 0.965 | > 2560
34 | RVH-421 (melanoma, adherent) | 0.969 | > 10200 | 0.462 | 4.73 | 0.678 | 608 | 0.976 | > 500 | 0.915 | > 10000 | 0.827 | 2430
35 | RXF393 (kidney, adherent) | 0.812 | 8360 | 0.384 | 2.65 | 0.478 | 136 | 0.97 | > 500 | 0.914 | > 10000 | 0.859 | > 2560
